Assay results: PubChem BioAssay AID1159614 (National Center for Advancing Translational Sciences (NCATS), 2016)
Among all 45,000 compounds or so, about 65 (0.1%) were called active. The call rests on the fitted dose curve; in most records, active means well fitted activation curve with a large enough effect; inconclusive means small, poorly fitted or top-dose-only effect; inactive means no such curve, though single readings can be large or run the other way. The list shows a part of the results.

These molecules were tested against Galactocerebrosidase (Homo sapiens) (UniProt P54803) (assay: A Novel Cell-Based Assay to Identify Small Molecules for B -Galactocerebrosidase). Conditions: 145M-Twi-hGALC-G270D cells (Twitcher mouse brain line with human GALC G270D), HMU-beta-Gal fluorescence, 48 h; series mostly up to 57.5 µM; activation: at the top concentration.
Source text: Lysosomal storage diseases (LSDs) are caused by genetic mutations in genes encoding proteins important for normal lysosomal function. Globoid cell leukodystrophy (GLD), mostly known as Krabbe disease, is a prototype of the neurological LSDs caused by deficiency of beta-galactocerebrosidase (GALC). In brain specimens of GLD patients, psychosine levels are substantially elevated. At elevated concentrations, psychosine becomes cytotoxic to neuronal cells, particularly to oligodendrocytes (OLG), neural cells responsible for myelin formation. Therefore, the biochemical disturbances in GLD are manifested by different degrees of brain demyelination resulting in a broad spectrum of neurological manifestations. Most of the FDA-approved therapies are based on enzyme replacement therapeutic (ERT) agents, which treat non-neurological symptoms of Gaucher disease, Fabry disease, few mucopolysaccharidoses and Pompe disease. Unfortunately, in GLD, a primarily neurological LSD, ERT agents, as large molecular weight molecules unable to cross the blood-brain barrier, which makes this an inefficacious therapeutic approach. In GLD, increasing the residual GALC activity just above the critical threshold (~10% of wild type enzymatic activity), the cytotoxic levels of psychosine will be reduced, avoiding the OLGs apoptosis and the subsequent demyelination process. This will translate in disease stabilization and amelioration of GLD patient symptoms.
A cell-based assay in 1,536-well plate format was developed to implement a quantitative high-throughput screening (qHTS) assay using GLD-disease relevant cells to identify small molecules that produce enhancements of the residual enzymatic activity levels of mutants GALC found and prevalent in GLD patients. Compounds that are active may therefore have some therapeutic application for GLD. After the treatment of live cells for a determined period, using a fluorescent GALC specific substrate, the mutant residual GALC activity is measured. This cell-based qTHS assay was used to screen part of the MLPCN library for small molecule able to increase the mutant GALC enzymatic activity. In this assay, increased fluorescent signal corresponds to enhanced levels of mutant GALC residual enzymatic activity. Activation is the desired outcome for this assay.
NIH Chemical Genomics Center [NCGC]
NIH Molecular Libraries Probe Centers Network [MLPCN]
Assay Submitter (PI): Gustavo Maegawa MD,PhD, University of Florida, Gainesville, FL
2)#Two cell lines were established for the assay: 145M-Twi-hGALC-G270D (brain-derived Twitcher cell line stably expressing human GALC-G270D) and 145M-Twi-hGALC-WT (same 145M-Twi stably expressing human GALC wild type). The Twitcher is the murine C57B/6 model for GLD with naturally occurring homozygous nonsense GALC mutation. The 145M-Twi cell line was established at Maegawa lab (Ribbens J et al 2014).
a.#Media: DMEM/F12 (1:1) with 10% fetal bovine-serum (FBS) with penicillin/streptomycin (PS-1X - 100 I.U./mL of penicillin+100 ug/mL of streptomycin).
b.#The 6-Hexadecanoylamino-4-methylumbelliferyl-b-D-galactoside (HMU-B-gal) substrate was prepared as per Wiederschain et al 1992. Using 20-mL borosilicate tubes, 2.20 mg of HMU-b-Gal was added in each tube to prepare substrate-film with a final air-nitrogen stream evaporation to remove all diluent solvents.
c.#The HMUb-Gal substrate buffer consists of 0.2 M Na2HPO4 (sodium phosphate dibasic)/ 0.1 M Citric Acid with the pH adjusted to 5.2 using HCl. Sodium Azide at 0.02% and Sodium Taurocholate (NaTC) at 1 mg/mL were added to this substrate buffer.
d.#The HMU-b-Gal stopping buffer consist of 0.5 M NaHCO3 (sodium bicarbonate) /0.5 M Na2CO3 (sodium carbonate). […] Triton X-100 at 0.25% was added.
4)#Preparation of HMU-b-Gal substrate tubes
Adding 18.6 mL of the HMUb-Gal substrate buffer to each 20-mL tube (2.20 mg of HMU-b-Gal) will reach a concentration of 0.2 mM. Vortex well the tube until the solution is fully homogenized (clear cloudy solution). […]
Further: 0% is about no effect; nearly all actives have a fitted effect of over 65% in size.

UniProt P54803, sequence (P54803 whole entry, looked up): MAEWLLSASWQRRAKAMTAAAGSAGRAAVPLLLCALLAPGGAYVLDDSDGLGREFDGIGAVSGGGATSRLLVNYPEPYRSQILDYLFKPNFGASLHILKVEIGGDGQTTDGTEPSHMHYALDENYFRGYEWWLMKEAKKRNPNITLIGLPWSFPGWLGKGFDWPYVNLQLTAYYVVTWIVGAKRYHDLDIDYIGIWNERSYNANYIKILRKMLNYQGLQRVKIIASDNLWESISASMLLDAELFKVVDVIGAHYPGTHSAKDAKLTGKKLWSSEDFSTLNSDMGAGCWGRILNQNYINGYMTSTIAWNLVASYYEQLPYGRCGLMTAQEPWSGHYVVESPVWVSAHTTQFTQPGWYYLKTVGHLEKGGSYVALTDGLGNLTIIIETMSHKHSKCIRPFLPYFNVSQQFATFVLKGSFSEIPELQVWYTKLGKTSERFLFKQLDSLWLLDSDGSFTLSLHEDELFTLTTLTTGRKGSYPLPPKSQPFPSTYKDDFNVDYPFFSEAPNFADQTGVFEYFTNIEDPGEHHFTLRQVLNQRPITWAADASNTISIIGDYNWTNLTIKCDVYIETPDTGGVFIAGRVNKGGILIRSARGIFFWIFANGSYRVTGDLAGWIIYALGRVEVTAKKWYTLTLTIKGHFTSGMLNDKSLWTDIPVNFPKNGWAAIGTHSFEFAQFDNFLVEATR

activation, inactive:
Cc1c(C(=O)NCc2ccc(OC(C)C)cc2)sc2ncnc(N(C)C3CCCCC3)c12 -2.66%, CC1=Nc2cc(C(=O)N3CCCCC3)ccc2Sc2ccc(C)cc21 -6.2%, COc1ccccc1CCNC(=O)CCCn1c(=O)c2cccn2c2cccnc21 -5.72%, Cc1ccc2[nH]c(CSc3nnc(NC(=O)COc4ccc(F)cc4)s3)cc(=O)c2c1 -11.8%, Cc1ccccc1C(=O)n1nc(-c2ccco2)nc1NCc1cccs1 -27.8%, CCCN(CCC)CCNC(=O)c1nn(C)c2c1CS(=O)(=O)c1ccccc1-2 -8.12%, CCOC(=O)c1c(C)oc2nc(C)nc(N3CCN(c4cccc(C(F)(F)F)c4)CC3)c12 -7.42%, COc1ccc(C2CC(=O)N(CC(=O)Nc3ccc(C(C)=O)cc3)c3ccccc3S2)cc1OC (centres undefined) -9.01%, O=C(NCC(c1ccc2c(c1)OCO2)N1CCN(c2ccccc2F)CC1)c1ccccc1F (centres undefined) -14.9%, COc1ccc(CCC(=O)NC2CC(=O)N(c3ccccc3)C2)cc1 (centres undefined) -18.6%, CCOC(=O)c1c(NC(=O)/C=C/c2ccc(Cl)cc2)sc2c1CCC(C)C2 (centres undefined) -14.5%, COc1ccc(CNC(=O)c2cc(-c3ccc(Cl)cc3)n[nH]2)cc1 -19.9%, O=C(CCCCn1c(=O)c2ccccc2n(Cc2cccc(Cl)c2)c1=O)NCc1ccc2c(c1)OCO2 -6.61%, O=C(NCc1nc(-c2ccccc2)no1)c1ccco1 -16.1%, COc1cc(Cl)c(C)cc1NC(=O)c1nn(C)c2c1CSc1ccccc1-2 -8.07%, CCCn1c2ccccc2c2cnn(CC(=O)NCCCN(Cc3ccccc3)C(C)C)c(=O)c21 -4.47%, CCCN(CCC)CCCNC(=O)c1cn(C)c2ccc(S(=O)(=O)N3CCOCC3)cc2c1=O -8.44%, O=S(=O)(NCCc1csc2nc(-c3ccc(Cl)cc3)nn12)c1ccc2c(c1)OCCO2 -16.6%, CCn1cc(C(=O)NCCc2ccccc2)c(=O)c2cc(S(=O)(=O)N3CCc4ccccc4C3)ccc21 -12.8%, COc1ccc(Nc2cc(C(=O)NCCCN(C)C3CCCCC3)c3ccccc3n2)c(OC)c1 -9.7%, COC(=O)c1ccc2c(=O)n(CCCCCC(=O)NCc3ccc(OC)cc3)c(=O)[nH]c2c1 -18.4%, COc1ccc(-c2cc(C)no2)cc1S(=O)(=O)N1CCOc2ccc(Cl)cc21 -8.32%, CC(C)c1ccc(NC(=O)CN2C(=O)COc3ccc(S(=O)(=O)N4CCOCC4)cc32)cc1 -10.4%, COc1ccc(CCNc2nc(SCc3cccc(F)c3)nc3ccccc23)cc1OC -7.42%, CCC(C)NC(=O)CN1C(=O)c2cccnc2Oc2ccc(C)cc21 (centres undefined) -6.88%, CCc1cc2c(cc3c(=O)n(CC(=O)NCCc4ccccc4)ncn32)s1 -5.78%, O=C(Nc1ccc(Cl)c(C(F)(F)F)c1)C(Cc1ccccc1)NS(=O)(=O)c1cccc2nsnc12 (centres undefined) -9.63%, Cc1ccc(C)c(NC(=O)c2ccc3c(c2)CCN3S(=O)(=O)c2ccccc2)c1 -25.4%, COc1ccc2oc(=O)c(-c3nc(-c4ccc(C)c(C)c4)cs3)cc2c1 -4.59%, CCC(Sc1nc2ncccc2o1)C(=O)Nc1cccc(C)c1 (centres undefined) 9.05%, O=C(CSc1nccn1Cc1ccc(Cl)cc1)Nc1ccc2c(c1)OCO2 -19.5%, COc1ccc(NC(=O)C2CCCN(S(=O)(=O)c3c(C)[nH]c(=O)[nH]c3=O)C2)cc1Cl (centres undefined) -7.15%, COc1cccc(-n2cc(C(=O)NCc3ccc(C)cc3)c3ccccc3c2=O)c1 -13.8%, O=C(CN1N=C(c2ccccc2)CCC1=O)NCc1ccc(F)cc1Cl -10.4%, C[N+]1(CC2COC(c3ccccc3)(c3ccccc3)O2)CCCCC1 (centres undefined) -16.6% [at 23.8 µM], C[C@H]1NCc2cc(-c3ccc4c(=O)c(C(=O)O)cn(C5CC5)c4c3OC(F)F)ccc21 -3.82% [at 23.8 µM], CCc1ccc(C2c3c(-c4ccccc4)n[nH]c3C(=O)N2c2ccc(C(=O)O)cc2)cc1 (centres undefined) -0.432%, COc1ccc(-c2nc(CNC(=O)NC3CCCCC3)c(C)o2)c(OC)c1 -8.99%, Cc1ccc2c(c1)C(C)(c1ccccc1)CC(C)(C)N2C(=O)c1ccc(F)cc1 (centres undefined) -32.8%, CC(=O)c1ccc(NC(=O)Cn2c(=O)oc3cc(S(=O)(=O)N4CCCCC4)ccc32)cc1 -16.8%, O=C1CCCc2[nH]c(=O)c(-c3nc(-c4cccc([N+](=O)[O-])c4)cs3)cc21 -6.73%, CC1=C(c2ccc(C)cc2)S(=O)(=O)N(Cc2ccc(C(=O)NCc3ccccc3F)cc2)C1=O -24.6%, CCCCCCc1cc2cc(-c3cn4c(n3)sc3cc(OC)ccc34)c(=O)oc2cc1O -7.2%, O=S(=O)(NCCc1cn2ccsc2n1)c1ccc(Cl)cc1 5.03%, O=C(CN1C(=O)COc2ccc(S(=O)(=O)N3CCOCC3)cc21)N1CCN(c2ccc(Cl)cc2)CC1 -8.27%, O=C(CCCn1c(=O)[nH]c2ccccc2c1=O)N1CCN(c2ccccc2)CC1 -6.5%, CCOC(=O)c1cc2c(=O)n3ccccc3nc2n(Cc2ccco2)c1=NC(=O)c1ccc(F)cc1 -12.7%, Cc1cc(OCC(=O)Nc2nc3c(s2)CCCC3)cc(C)c1Cl -7.37%, CCOC(=O)c1ccccc1NC(=O)COc1cc(=O)n(CC)c2ccccc12 -10.9%, O=C(Nc1cccc(Cl)c1)c1cc(S(=O)(=O)N2CCC3(CC2)OCCO3)ccc1F -13.7%, Cc1ccccc1C(=O)n1nc(-c2cccnc2)nc1NCc1ccc(F)cc1 -35.2%, CCN(CCCNC(=O)Cn1ncc2c3ccccc3n(C)c2c1=O)c1cccc(C)c1 -14.2%, COc1cc(OC)c(NC(=O)Cn2cnc3c(nc4n3CCCCC4)c2=O)cc1Cl -22.5%, COc1ccc(NC(=O)CC(C)S(=O)(=O)c2ccc3c(c2)NC(=O)CO3)cc1OC (centres undefined) -7.54%, O=C(CN1CCN(C2CCCCC2)C(=O)C1=O)Nc1ccc(Cl)cc1 -1.11%, O=C(CCC1N=C2c3ccccc3N=C(SCc3ccc(Cl)cc3)N2C1=O)NC1CCCCC1 (centres undefined) -18.2%, CCOc1ccccc1NC(=O)Cn1c(=O)n(Cc2ccccc2)c(=O)c2c3c(sc21)CN(C(C)=O)CC3 -8.45%, Cc1cccc(C)c1NC(=O)Cn1c(=O)cc(C)c2c(C)nn(-c3cccc(Cl)c3C)c21 -13.5%, COc1ccc(Cl)cc1NC(=O)c1sc2nc3c(cc2c1N)CN(C)CC3 -10%, Cc1ccc(-n2ncc3c(N4CCCCC4)ncnc32)cc1 -5.29%, COc1ccc(OC)c(NC(=O)Cn2c(CCC(=O)O)ccc2-c2ccccc2)c1 -13.7%, CCC(=O)Nc1ccccc1C(=O)OCc1cc(=O)n2cc(C)sc2n1 -9.77%, CC(C)CCN1C(=O)c2ccccc2CC1(C)C(=O)NC1CCCCC1 (centres undefined) -9.61%, O=C(Nc1c(C(=O)N2CCN(c3ccccc3)CC2)oc2ccccc12)c1ccccc1F -13.2%, Cc1cccc(N(C)C(=O)c2cc3c(=O)oc4ccc(C)cc4c3s2)c1 -0.131%, CCOc1ccc(-n2nc3ccc(NC(=O)c4ccc(C)cc4C)cc3n2)cc1 -14.6%, Cc1ccc(CCNC(=O)c2cc3cc(S(=O)(=O)N4CCCCC4)ccc3n2C)cc1 -9.74%, CC1CC(=O)N(CC(=O)Nc2ccc(OC(F)(F)F)cc2)c2ccccc2S1 (centres undefined) 1.54%, CCCN1CCN(C(=O)Cn2ncc3c4ccccc4n(Cc4cccc(Cl)c4)c3c2=O)CC1 -8.83%, CCOC(=O)c1ccc(Nc2nc3ccccc3n3c(C)nnc23)cc1 -12.5%, CC1=Nc2cc(C(=O)NC3CCCC3)ccc2Sc2ccc(Cl)cc21 -15%, CCN1CCN(CCCNC(=O)c2cnn(-c3ccc(OC)cc3)c2C2CCN(C(=O)OC(C)(C)C)CC2)CC1 -7.48%, CCN1CCOC(=O)C1CC(=O)Nc1cc(Cl)ccc1C (centres undefined) -22.8%, COC(=O)c1ccc(C(=O)OC)c(NC(=O)c2cnn3c(C(F)F)cc(-c4ccc(C)cc4)nc23)c1 -9.56%, COc1ccc(Cl)cc1C(=O)NCCc1ccc(S(=O)(=O)NC(=O)NC2CCCCC2)cc1 -10.4%, COC(=O)c1scc(-c2ccc(C)cc2)c1S(=O)(=O)N1CCN(c2ccccc2F)CC1 -6.74%, Cc1cccc(N2CCN(c3ncnc4c3cnn4-c3ccc(Cl)cc3)CC2C)c1 (centres undefined) -22.3%, O=C(Cn1c(-c2cccs2)cc2cc(F)ccc21)N1CCCCC1 -5.52%, COc1cccc(C(=O)Nc2c3c(nn2-c2ccc(C)cc2C)CS(=O)(=O)C3)c1OC -18.5%, COc1ccc(N(C)S(=O)(=O)c2ccc3c(c2)n(C)c(=O)c(=O)n3C)cc1 -2.48%, CC(C)CN(CC(C)C)S(=O)(=O)c1ccc(C(=O)Nc2sc3c(c2C(N)=O)CCN(C(C)C)C3)cc1 -25.6%, CCOCCc1nn2c(=O)cc(COC(=O)c3ccccc3NC(=O)CC(C)C)nc2s1 -6.81%, CCOc1ccc(-c2noc(CSc3nnc(Cc4ccccc4)n3-c3ccc(F)cc3)n2)cc1 -16.4%, CC(=O)N1CCC(N(Cc2ccco2)C(=O)Nc2ccc(Br)cc2F)CC1 -9%, O=C(CC1N=C2c3ccccc3N=C(SCc3ccccc3Cl)N2C1=O)NCc1cccs1 (centres undefined) -20.1%, COc1ccc(NC(=O)C(=O)NCC(c2cccnc2)N2CCc3ccccc3C2)cc1 (centres undefined) -14.8%, CCOc1ccc(NC(=O)Cc2ccc(-n3c(C)nc4cccnc43)cc2)cc1 -8.39%, CCOC(=O)C1CCCN(Cc2cn3c(-c4ccc(Br)cc4)nnc3s2)C1 (centres undefined) -15.6%, COc1ccc(C(=O)NNc2ncnc3c2cnn3-c2ccccc2)cc1 -10.9%, CN(C(=O)c1ccc2c(c1)N(Cc1ccccc1F)C(=O)c1ccccc1S2(=O)=O)C1CCCCC1 3.57%, COc1ccc(NC(=O)C(NC(=O)/C=C\c2ccc3c(c2)OCO3)c2ccc(OC)cc2)cc1 (centres undefined) -30.5%, Cc1ccc(NC(=O)CN2C(=O)c3ccccc3Sc3ccc(C(=O)N4CCCC4)cc32)cc1 -8.24%, O=C(Nc1cc(Cl)ccc1Cl)c1cc(S(=O)(=O)N2CCCc3ccccc32)ccc1F -4.4%, CCN(CC)CCNC(=O)c1[nH]c2ccccc2c1Sc1ccc(Cl)cc1 -30.3%
